# Reference: the supplement of paper PMC8728848
# The other results are listed elsewhere or left out.
# B1: PpFlo2 (Pichia pastoris) (protein)
# chain: MGSSHHHHHHSSGLVPRGSHMDDSGNGDNSDTAYGCDITTNAVDGFDATIYQYNANDLRLIRDPTFMSTGYLGRNVLNKISGVTVPGFNIWNPSSRTATVYGVKNVNYYNMVLELKGYFKADVSGDYKLTLSHIDDSSMLFFGKETAFKCCDAGSIPLNEAPTDYSLFTIKPSNQVNSEVISATQYLEAGKYYPVRIVFVNALERARFDFKLTIPSGAVLDDFQNYIYQFGDLDENSCHE
# Experiments:
# Assay in all cases: glycan array binding signal (z-score within array); higher = stronger binding
# Settings in all cases: glycan notation: IUPAC condensed, linker removed
# Gal(b1-3)GalNAc(b1-3)Gal = target: Gal(b1-3)GalNAc(b1-3)Gal
# In short: (§1)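 Arrays were curated from the Consortium for Functional Glycomics database, 3228 in total, and kept only where the protein sequence was available. Binding is expressed as a within-array Z-score. This score was averaged across arrays of the same protein sequence at different concentrations or buffers and across linkers, and negative values can be read as non-binding.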
# [1] = target: Gal(b1-3)GalNAc(b1-3)Gal(a1-4)Gal(b1-4)Glc
# In short: as §1
# [2] = target: Gal(b1-3)GalNAc(b1-4)Gal(b1-4)Glc
# In short: as §1
# [3] = target: Gal(b1-3)GalNAc(b1-4)[Neu5Ac(a2-3)]Gal(b1-4)Glc
# In short: as §1
# Gal(b1-3)GlcNAc = target: Gal(b1-3)GlcNAc
# In short: as §1
# [4] = target: Gal(b1-3)GlcNAc(a1-3)Gal(b1-4)GlcNAc
# In short: as §1
# [5] = target: Gal(b1-3)GlcNAc(a1-6)Gal(b1-4)GlcNAc
# In short: as §1
# Gal(b1-3)GlcNAc(b1-2)Man = target: Gal(b1-3)GlcNAc(b1-2)Man
# In short: as §1
# [6] = target: Gal(b1-3)GlcNAc(b1-2)Man(a1-3)[Gal(b1-3)GlcNAc(b1-2)Man(a1-6)]Man(b1-4)GlcNAc(b1-4)GlcNAc
# In short: as §1
# [7] = target: Gal(b1-3)GlcNAc(b1-2)Man(a1-3)[Gal(b1-3)GlcNAc(b1-2)Man(a1-6)]Man(b1-4)GlcNAc(b1-4)[Fuc(a1-6)]GlcNAc
# In short: as §1
# [8] = target: Gal(b1-3)GlcNAc(b1-2)Man(a1-3)[GlcNAc(b1-4)][Gal(b1-3)GlcNAc(b1-2)Man(a1-6)]Man(b1-4)GlcNAc(b1-4)GlcNAc
# In short: as §1
# [9] = target: Gal(b1-3)GlcNAc(b1-2)[Gal(b1-3)GlcNAc(b1-6)]Man(a1-6)[Gal(b1-3)GlcNAc(b1-2)Man(a1-3)]Man(b1-4)GlcNAc(b1-4)GlcNAc
# In short: as §1
# [10] = target: Gal(b1-3)GlcNAc(b1-3)Gal(b1-3)GlcNAc
# In short: as §1
# [11] = target: Gal(b1-3)GlcNAc(b1-3)Gal(b1-4)Glc
# In short: as §1
# [12] = target: Gal(b1-3)GlcNAc(b1-3)Gal(b1-4)GlcNAc
# In short: as §1
# [13] = target: Gal(b1-3)GlcNAc(b1-3)Gal(b1-4)GlcNAc(b1-2)Man(a1-3)[Gal(b1-3)GlcNAc(b1-3)Gal(b1-4)GlcNAc(b1-2)Man(a1-6)]Man(b1-4)GlcNAc(b1-4)GlcNAc
# In short: as §1
# [14] = target: Gal(b1-3)GlcNAc(b1-3)Gal(b1-4)GlcNAc(b1-2)[Gal(b1-3)GlcNAc(b1-3)Gal(b1-4)GlcNAc(b1-6)]Man(a1-6)[Gal(b1-3)GlcNAc(b1-3)Gal(b1-4)GlcNAc(b1-2)Man(a1-3)]Man(b1-4)GlcNAc(b1-4)[Fuc(a1-6)]GlcNAc
# In short: as §1
# [15] = target: Gal(b1-3)GlcNAc(b1-3)Gal(b1-4)GlcNAc(b1-3)Gal(b1-4)GlcNAc(b1-2)[Gal(b1-3)GlcNAc(b1-3)Gal(b1-4)GlcNAc(b1-3)Gal(b1-4)GlcNAc(b1-6)]Man(a1-6)[Gal(b1-3)GlcNAc(b1-3)Gal(b1-4)GlcNAc(b1-3)Gal(b1-4)GlcNAc(b1-2)Man(a1-3)]Man(b1-4)GlcNAc(b1-4)[Fuc(a1-6)]GlcNAc
# In short: as §1
# [16] = target: Gal(b1-3)GlcNAc(b1-3)Gal(b1-4)GlcNAc(b1-6)[Gal(b1-3)GlcNAc(b1-3)]Gal(b1-4)Glc
# In short: as §1
# [17] = target: Gal(b1-3)GlcNAc(b1-3)Gal(b1-4)[Fuc(a1-3)]GlcNAc
# In short: as §1
# [18] = target: Gal(b1-3)GlcNAc(b1-3)Gal(b1-4)[Fuc(a1-3)]GlcNAc(b1-6)[Gal(b1-3)GlcNAc(b1-3)]Gal(b1-4)Glc
# In short: as §1
# [19] = target: Gal(b1-3)GlcNAc(b1-3)GalNAc
# In short: as §1
# [20] = target: Gal(b1-3)GlcNAc(b1-6)Gal(b1-4)GlcNAc
# In short: as §1
# [21] = target: Gal(b1-3)GlcNAc(b1-6)GalNAc
# In short: as §1
# [22] = target: Gal(b1-3)GlcNAc(b1-6)[Gal(b1-3)]GalNAc
# In short: as §1
# Gal(b1-3)GlcNAc6S = target: Gal(b1-3)GlcNAc6S
# In short: as §1
# [23] = target: Gal(b1-3)[Fuc(a1-4)]GlcNAc
# In short: as §1
# [24] = target: Gal(b1-3)[Fuc(a1-4)]GlcNAc(b1-2)Man
# In short: as §1
# [25] = target: Gal(b1-3)[Fuc(a1-4)]GlcNAc(b1-2)Man(a1-3)[Gal(b1-3)[Fuc(a1-4)]GlcNAc(b1-2)Man(a1-6)]Man(b1-4)GlcNAc(b1-4)GlcNAc
# In short: as §1
# [26] = target: Gal(b1-3)[Fuc(a1-4)]GlcNAc(b1-2)Man(a1-3)[Gal(b1-3)[Fuc(a1-4)]GlcNAc(b1-2)Man(a1-6)]Man(b1-4)GlcNAc(b1-4)[Fuc(a1-6)]GlcNAc
# In short: as §1
# [27] = target: Gal(b1-3)[Fuc(a1-4)]GlcNAc(b1-3)Gal(b1-3)[Fuc(a1-4)]GlcNAc
# In short: as §1
# [28] = target: Gal(b1-3)[Fuc(a1-4)]GlcNAc(b1-3)Gal(b1-4)GlcNAc
# In short: as §1
# [29] = target: Gal(b1-3)[Fuc(a1-4)]GlcNAc(b1-3)Gal(b1-4)[Fuc(a1-3)]GlcNAc
# In short: as §1
# [30] = target: Gal(b1-3)[Fuc(a1-4)]GlcNAc(b1-6)GalNAc
# In short: as §1
# [31] = target: Gal(b1-3)[GlcNAc(b1-6)]GalNAc
# In short: as §1
# [32] = target: Gal(b1-3)[Neu5Ac(a2-6)]GalNAc
# In short: as §1
# [33] = target: Gal(b1-3)[Neu5Ac(a2-6)]GlcNAc(b1-4)Gal(b1-4)Glc
# In short: as §1
binder,measurement,setting,value
B1,glycan array binding signal (z-score),Gal(b1-3)GalNAc(b1-3)Gal,-0.272
same,glycan array binding signal (z-score),[1],-0.299
same,glycan array binding signal (z-score),[2],-0.297
same,glycan array binding signal (z-score),[3],-0.296
same,glycan array binding signal (z-score),Gal(b1-3)GlcNAc,-0.272
same,glycan array binding signal (z-score),[4],-0.268
same,glycan array binding signal (z-score),[5],-0.297
same,glycan array binding signal (z-score),Gal(b1-3)GlcNAc(b1-2)Man,-0.228
same,glycan array binding signal (z-score),[6],-0.133
same,glycan array binding signal (z-score),[7],-0.254
same,glycan array binding signal (z-score),[8],-0.213
same,glycan array binding signal (z-score),[9],-0.178
same,glycan array binding signal (z-score),[10],-0.232
same,glycan array binding signal (z-score),[11],-0.286
same,glycan array binding signal (z-score),[12],-0.261
same,glycan array binding signal (z-score),[13],-0.174
same,glycan array binding signal (z-score),[14],-0.258
same,glycan array binding signal (z-score),[15],-0.145
same,glycan array binding signal (z-score),[16],-0.122
same,glycan array binding signal (z-score),[17],-0.228
same,glycan array binding signal (z-score),[18],-0.231
same,glycan array binding signal (z-score),[19],-0.285
same,glycan array binding signal (z-score),[20],-0.287
same,glycan array binding signal (z-score),[21],-0.265
same,glycan array binding signal (z-score),[22],-0.267
same,glycan array binding signal (z-score),Gal(b1-3)GlcNAc6S,-0.275
same,glycan array binding signal (z-score),[23],-0.299
same,glycan array binding signal (z-score),[24],-0.269
same,glycan array binding signal (z-score),[25],-0.357
same,glycan array binding signal (z-score),[26],-0.259
same,glycan array binding signal (z-score),[27],-0.294
same,glycan array binding signal (z-score),[28],-0.259
same,glycan array binding signal (z-score),[29],-0.278
same,glycan array binding signal (z-score),[30],-0.262
same,glycan array binding signal (z-score),[31],0.516
same,glycan array binding signal (z-score),[32],-0.299
same,glycan array binding signal (z-score),[33],-0.271
